Test results published in PubChem BioAssay AID1346428 (National Center for Advancing Translational Sciences (NCATS), 2018).
Out of some 48,000 compounds screened, about 1,200 (2.5%) were called active. Roughly 2% stayed inconclusive and do not appear here.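 Rule for the calls: active = activation of at least 60% and not above a set upper limit (about 1 call in 100 departs from these limits); inconclusive = activation of 40% to 60%, or above that upper limit; inactive = activation under 40%.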 The list shows a part of the results.

biological target: Probable G-protein coupled receptor 32 (Homo sapiens) (UniProt O75388); assay: qHTS for Agonists of Human Resolvin D1 Receptor DRV1; settings: CHO-K1 GPR32 beta-arrestin PathHunter luminescence, 90 min; at 76.9 µM; stronger effect = higher value; zero percent set by DMSO-only wells; note: 0% is about no effect
Procedure, shortened: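 PathHunter enzyme-fragment complementation, CHO-K1 GPR32 stable line; 2,500 cells/well, overnight attach; cpd 90 min 37 °C 5% CO2; detection reagent 1 h RT; chemiluminescence. DMSO = EC0.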

activation, inactive:
CC(C)NC(=O)c1nn(-c2ccccc2F)nc1CO -8.71%
COc1ccc(-c2nc(SCC(=O)Nc3ccc4c(c3)OCCO4)c(-c3ccc(C)cc3)[nH]2)cc1OC -34.8%
CC(C)(C)OC(=O)N1CCC(c2nnc(SCc3cccc(Cl)c3)o2)CC1 2.34%
Cc1ccc(CNC(=O)CN2C(=O)COc3ccc(S(=O)(=O)Nc4ccccc4)cc32)cc1 -5.5%
Cc1cc(C)cc(NC(=O)CSc2nc(-c3ccccc3)c3cc(F)ccc3n2)c1 -0.0932%
Cc1ccc2c(c1)-c1ncc(C(=O)c3ccccc3O)cc1CO2 -9.25%
CCc1ccc(NC(=O)CC2C(=O)N(c3cccc(OC)c3)C(=O)N2C2CCCC2)cc1 (stereo not drawn) -27.7%
CC(=O)OCC(=O)[C@@]1(OC(C)=O)[C@@H](C)C[C@H]2[C@@H]3C[C@H](F)C4=CC(=O)C=C[C@]4(C)[C@@]3(F)[C@@H](O)C[C@@]21C -4.15%
Cc1ccc(C(=O)NC2=NC(c3ccc(C)cc3)CC(=O)N2)cc1 (stereo not drawn) -11.9%
Cc1cc(C)cc(NC(=O)c2cc(CN3CCCC3)on2)c1 -12%
CC(=O)c1ccc(NC(=O)c2cc3sccc3n2Cc2ccc(F)cc2)cc1 40.5%
CCCCCOC(=O)CSc1ncnc2sc3c(c12)CCC(C)C3 (stereo not drawn) -8.14%
CCOC(=O)c1c(NC(=O)c2cc3ccccc3c(=O)o2)sc2c1CCC(C)C2 (stereo not drawn) 2.91%
CSc1ccc(CCNC(=O)CCn2c(=O)c3cccn3c3ccc(F)cc32)cc1 -31%
C[C@]1(Cn2ccnn2)[C@H](C(=O)O)N2C(=O)C[C@H]2S1(=O)=O -5.12%
COc1cc(OC)cc(C(=O)Nc2cc3c(cc2N2CCCC2)n(C)c(=O)c(=O)n3C)c1 -7.35%
COc1ccc(-n2c(=O)c3ccccc3n(CC(=O)Nc3ccccc3OC)c2=O)cc1 -0.0267%
Cc1ccc(SCC(=O)Nc2ccc3oc(-c4ccccc4C)nc3c2)cc1 11%
COc1cc(C2CC(=O)Nc3c2c(C)nn3-c2nncc(-c3ccc(C)cc3)n2)cc(OC)c1OC (stereo not drawn) -0.699%
CC(CN(C)C)C(C)(O)Cc1ccc(Cl)cc1 (stereo not drawn) -2.71%
CCOc1ccc(NC(=O)c2cnc3ccccn3c2=O)cc1 -7.71%
Cc1ccc2c(CC(=O)Nc3c(C(=O)c4ccc(C)c(F)c4)oc4ccccc34)coc2c1 -12.2%
Cc1ccc(CNC(=O)c2cc(C)nc3c2c(C)nn3-c2ccc(C)cc2)cc1 -2.22%
COc1ccc(S(=O)(=O)c2c(O)c3ccc(C(=O)NCc4ccc(F)cc4)cc3[nH]c2=O)cc1 -14%
COc1ccc(NC(=O)CSc2nc(-c3ccc(F)cc3)[nH]c2-c2ccc(C)cc2)cc1OC -21.7%
CC(=O)c1ccc(NC(=O)c2cnn(-c3cccc(F)c3)c2-n2cccc2)cc1 -8.22%
CC[C@@H](CO)NCCN[C@@H](CC)CO -26.2%
CCOc1ccc(CCNC(=O)c2ccc3c(c2)c(C)c(C)n3Cc2ccccc2)cc1OCC -20.5%
O=C(Nc1ccc(Oc2ccccc2)cc1)C1CCN(S(=O)(=O)c2ccc(Cl)cc2)CC1 -2.66%
O=S(=O)(c1ccc(Cl)cc1)c1nc(-c2ccco2)oc1SCc1ccc(F)cc1 -22.6%
COc1ccc(CCN2C(=O)c3[nH]nc(-c4ccccc4O)c3C2c2ccc(OC)cc2)cc1 (stereo not drawn) -9.06%
CCOC(=O)c1cc(S(=O)(=O)NCc2ccc(C)cc2)[nH]n1 -12.5%
COc1ccccc1NC(=O)CCCc1nnc2n(C)c(=O)c3sccc3n12 21.4%
CCOc1ccccc1CNC(=O)C1CCN(S(=O)(=O)c2ccc3[nH]c(=O)ccc3c2)CC1 -0.645%
COc1ccccc1NC(=O)CSC1=Nc2ccccc2C2=NC(CCC(=O)NCCc3ccccc3)C(=O)N12 (stereo not drawn) 2.69%
CCOC(=O)c1c(C)oc2ncnc(Nc3ccc(OC)cc3OC)c12 1.11%
CCOc1ccccc1NC(=O)Cn1ncc2c(=O)oc3ccc(C)cc3c21 -6.6%
O=C(Nc1nc2c(s1)CCCCCC2)Nc1ccc(F)cc1F -4.99%
COc1ccc(N2CCN(C(c3ccccc3)c3sc4nc(-c5ccco5)nn4c3O)CC2)cc1 (stereo not drawn) -26.9%
Cc1ccc(C(=O)N2CCc3cc(CNS(=O)(=O)c4cccs4)ccc32)cc1 -17.9%
COc1ccc(-c2noc(CSc3nnc(C)n3-c3ccc(C)cc3)n2)cc1OC 1.99%
CN1C(=O)Cc2cc(S(=O)(=O)NCCc3ccc(Cl)cc3)ccc21 -20.8%
CCCOc1ccc(NC(=O)CC2C(=O)N(c3cccc(OC)c3)C(=O)N2Cc2cccs2)cc1 (stereo not drawn) -16.3%
O=C(CSCc1cnn(-c2ccccc2)c1-n1cccc1)NCc1ccc(Cl)cc1 -28.1%
COc1ccccc1N1CCN(C(=O)c2cn(CC(C)C)c(=O)c3c2c2ccccc2n3C)CC1 -30.4%
O=C(Nc1ccc(O)c(-c2nc3ccccc3o2)c1)c1sc2ccccc2c1Cl -3.52%
CN1C2CCC1CC(OC(=O)C(O)c1ccccc1)C2 (stereo not drawn) 9.54%
CCOc1ccccc1C(=O)NC1(C(F)(F)F)NC(=O)N(CCc2ccc(OC)c(OC)c2)C1=O (stereo not drawn) -4.53%
COc1cc(OC)cc(-c2cc3nc(C)c(CCC(=O)NCc4ccccc4)c(C)n3n2)c1 -19.4%
Cc1cccc(C2C=C(c3ccc(C)c(C)c3)Nc3nnnn32)c1 (stereo not drawn) -42.8%
Cc1cc(F)ccc1S(=O)(=O)Nc1ccc2oc3c(c2c1)CC(C)CC3 (stereo not drawn) 25.9%
Cc1nc2ccn(Cc3ccccc3)c(=O)c2cc1C(=O)N1CCN(c2ccccc2F)CC1 9.21%
CC(C)c1ccc(NC(=O)c2ccc3c(c2)CCN3S(=O)(=O)c2ccccc2)cc1 -5.72%
O=C(Nc1nnc(S(=O)(=O)N2CCCc3ccccc32)s1)c1ccccc1Cl 26%
COc1ccc(CCNC(=O)CCCn2c(=O)c3cccn3c3ccccc32)cc1OC -11%
COc1ccccc1N1CCN(C(=O)C2CCN(S(=O)(=O)Cc3ccccc3)CC2)CC1 47.9%
CCC(Cc1ccccc1)NC(=O)CN1C(=O)COc2ccc(S(=O)(=O)N3CCCCCC3)cc21 (stereo not drawn) 3.73%
Cc1cc2c(cc1NC(=O)c1ccccc1C)n(C)c(=O)c(=O)n2C -18.8%
CCOCCCNC(=O)C1CCN(C(=O)c2cc3sccc3n2C)CC1 -4.54%
CC(C)CCN(Cc1ccco1)C(=O)c1cc2c(s1)-c1ccccc1OC2 0.492%
COc1ccc(NC(=O)CCCN2C(=O)C(c3ccccc3)Oc3cccnc32)c(OC)c1 (stereo not drawn) 32.2%
CCc1ccc(CNC(=O)CCCN2C(=O)CCn3nc(-c4cccn4C)cc32)cc1 -10.3%
CCc1ccc2oc(C(=O)Nc3cccc(Cl)c3C)cc(=O)c2c1 -16.4%
COc1cc(-c2nnc(SCCOc3ccc(Cl)cc3)o2)cc(OC)c1OC -1.47%
O=C(COc1ccccc1)OCc1cc(=O)n2nc(C3CC3)sc2n1 11.6%
Cc1cccc(N2CCN(C(=O)Cc3c(C(=O)O)c(C)cn3C)CC2)c1C 5.57%
Cc1ccc(C(=O)c2c(N)c(-c3nc(-c4ccc5c(c4)OCO5)cs3)c3ccccn23)cc1C -2.89%
COCc1nn2cc(-c3ccc(C)cc3)nc2s1 -10.5%
Cc1ccc(C(=O)Nc2cc(-c3nc4ncccc4o3)ccc2C)c(C)c1 6.17%
CC(=O)c1ccc(N2CCN(C(=O)C3CCN(S(=O)(=O)c4c(C)noc4/C=C/c4ccc(C)cc4)CC3)CC2)cc1 -6.54%
CC(=O)N1CCc2c(sc3c2c(=O)n(Cc2ccccc2)c(=O)n3Cc2ccc(C)cc2)C1 -10.7%
COC(=O)c1ccc(Cn2cnc3nc4c(cc3c2=O)CCCC4)cc1 -12.6%
Cc1ccc(/C=C/c2onc(C)c2S(=O)(=O)N2CCC(C(=O)Nc3cc(C)ccc3C)CC2)cc1 -12.4%
COc1ccccc1CCNC(=O)C(=O)NCC(c1cccs1)S(=O)(=O)c1cccs1 (stereo not drawn) -1.2%
CCOc1ccc(S(=O)(=O)Nc2cccc(-c3ccc(OCC)nn3)c2)cc1 9.45%
Cc1cccc(NC(=O)c2c(C)cc(C)nc2SCC(=O)c2ccccc2)c1 -22.1%
Cc1cc(C)c2oc(C(=O)Nc3ccc(S(=O)(=O)N4CCCCCC4)cc3)cc(=O)c2c1 -9.3%
O=C(Nc1ccc(F)cc1C(F)(F)F)C1CCN(c2ncccn2)CC1 -0.249%
COc1ccc(S(=O)(=O)c2cn(C)c3ccc(C)cc3c2=O)cc1 6.94%
Cc1cccc(NC(=O)COC(=O)CCCC2=NS(=O)(=O)c3ccccc3N2)c1 13.1%
O=C(Nc1ccc(S(=O)(=O)N2CCCCC2c2cccnc2)cc1)c1ccc(Br)cc1 (stereo not drawn) 20.2%
CCC1CN(C(=O)N2CCC(C(=O)NCc3cccc(OC)c3OC)CC2)c2cc(C)ccc2O1 (stereo not drawn) -9.96%
CCC1=Nc2cc(C(=O)NC3CCC(C)CC3)ccc2Sc2ccc(C)cc21 (stereo not drawn) -8.14%
